Data reported in PubChem BioAssay AID1508624 (National Center for Advancing Translational Sciences (NCATS), 2021).
Several values for one entry are separate records, joined by “and”; a condition that tells them apart may be missing. Equal entries are not always repeated. Screen size: about 48,000 compounds; about 120 (0.25%) were called active. This list was built around the results that the source calls inconclusive (neither active nor inactive); the mix of calls is not that of the screen. Calls follow the shape of the dose curve; as a rule, active = well fitted activation curve with a large enough effect; inconclusive = small, poorly fitted or top-dose-only effect, or another doubt; inactive = no such curve, though single readings can be large or run the other way. Potencies of inconclusive entries are doubtful fits and often do not repeat.

experiment: Primary qHTS for Identification of Small Molecule Activators of Huntingtin-Antisense Promoter Activity; conditions: HEK293 HTT-AS promoter firefly luciferase reporter, 24 h; activity change, positive = activation: at 57.5 µM (top of the series), percent change from vehicle, -100% = no light unless noted; also: nearly all actives have a fitted effect of over 55% in size
Procedure, shortened: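 Luminescence was read after Dual-Glo reagent and a 10 min room-temperature incubation. Values were normalized to vehicle (0% activity) and zero RLU (-100% activity). Reporter HEK293 cells had been exposed to compounds (up to 57.5 uM final) for 24 h.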
Potency is read from the fitted curve at half-maximal effect; tags tell the direction and shape of the fitted curve.

Row | SMILES | Potency | activity change, positive = activation
1 | COc1ccc(-c2nn(CC(=O)NC3CCCC3)c3c2cnc2ccc(F)cc23)cc1 | inconclusive: 22.4 µM [activator, partial curve, poor fit] | 
2 | O=c1c(-c2ccc(O)cc2)coc2cc(O)cc(O)c12 | inconclusive: 17.2 µM [activator, single point] and inconclusive: 12.6 µM [activator, partial curve] | 
3 | CCn1cc(C(=O)N(C)Cc2ccccc2)c(=O)c2cc(S(=O)(=O)N3CCCCC3)ccc21 | inconclusive: 2.24 µM [activator, partial curve, poor fit] | 
4 | O=C(O)[C@H]1O[C@H](Oc2cc3oc(-c4ccccc4)cc(=O)c3c(O)c2O)[C@H](O)[C@@H](O)[C@H]1O | inconclusive: 30.6 µM [activator, single point] | 
5 | COc1ccc(-c2nc(C)c(CCNC(=O)c3cccc(C)c3)s2)cc1OC | inconclusive: 17.8 µM [activator, single point] | 
6 | Cc1cccc(-c2cc(NC(=O)c3ccccc3C)n(-c3ccccc3)n2)c1 | inconclusive: 12.6 µM [activator, partial curve, poor fit] | 
7 | CC(C)(C)C(=O)Nc1ccc(Cl)c(-c2nc3ccccc3[nH]2)c1 |  | inactive: -10.5%
8 | CCOc1ccc2nc(N(Cc3cccnc3)C(=O)c3cccs3)sc2c1 | inconclusive: 12.6 µM [activator, partial curve, poor fit] | 
9 | COc1ccc(NC(=O)CCc2c(C)nn(-c3ccc(N4CCCC4)nn3)c2C)cc1Cl | inconclusive: 5.01 µM [activator, full curve] | 
10 | Cc1ccc(Cn2c(=O)n(CCc3ccccc3)c(=O)c3sc4ccccc4c32)cc1 | inconclusive: 25.1 µM [activator, single point] | 
11 | Cc1cc(C)c(NC(=O)CSc2nc(=O)n(Cc3ccncc3)c3c2CCC3)c(C)c1 |  | inconclusive: -72.8% [activator]
12 | O=C(CSc1cn(CCNC(=O)c2ccccc2F)c2ccccc12)Nc1ccc2c(c1)OCCO2 |  | inactive: -8.47%
13 | CCOc1ccc(-c2cc(NC(=O)Nc3cccc(C(C)=O)c3)c(C(=O)OC)s2)cc1 | inconclusive: 22.4 µM [activator, partial curve, poor fit] | 
14 | COc1ccc(NC(=O)C2=C(C)Nc3ncnn3C2c2ccc(O)cc2)cc1 (stereo not given) |  | inconclusive: -12.9% [activator]
15 | CCOc1ccc(NC(=O)c2ccc3c(SCC(=O)O)c4c(nc3c2)CCCC4)cc1 |  | inconclusive: -63.9% [activator]
16 | CC1=C(C(=O)Nc2ccc(C)cc2C)C(c2ccccc2C)n2ncnc2N1 (stereo not given) |  | inconclusive: -40.4% [activator]
17 | Cc1ccc(NC(=O)NCc2cccn2Cc2ccccc2)cc1F |  | inactive: -10.5%
18 | CCOc1ccc(NC(=O)N2CCOc3ccccc32)cc1 | inconclusive: 2 µM [activator, full curve] | 
19 | Fc1cccc(NCc2ccccc2-c2nnc(-c3ccccc3Cl)o2)c1 | inconclusive: 5.62 µM [activator, partial curve] | 
20 | CC(C)N(Cc1ccccc1)C(=O)c1cc2ccc3cccnc3c2[nH]1 |  | inactive: -24.7%

Row | SMILES | Potency | activity change, positive = activation
21 | COc1cccc(C(c2sc3nc(-c4ccco4)nn3c2O)N2CCCC2)c1 (stereo not given) | inconclusive: 14.1 µM [activator, partial curve] | 
22 | O=C(Cc1csc2ccccc12)NCc1ccc(F)cc1 | inconclusive: 10 µM [activator, partial curve, poor fit] | 
23 | CCCn1c(/C=C/c2ccccc2)nc2ccccc21 | inconclusive: 1.78 µM [activator, full curve, poor fit] | 
24 | Cc1ccc(S(=O)(=O)c2nc(-c3ccc(F)cc3)oc2N2CCN(c3ccccc3)CC2)cc1 |  | inactive: -14.6%
25 | CCCC(=O)N1CCN(c2nc3ccc(F)cc3s2)CC1 | inconclusive: 0.282 µM [activator, full curve, poor fit] | 
26 | Clc1ccc(-n2c(Cc3ccccc3)nnc2SCc2nc(-c3cccs3)no2)cc1 |  | inactive: -37.1%
27 | Cc1ccc(-n2ncc3c(NCCO)ncnc32)cc1Cl | inconclusive: 2.51 µM [activator, partial curve, poor fit] | 
28 | Cc1ccc(-n2nnc(-c3nc(-c4cccs4)no3)c2N)cc1C | inconclusive: 1.78 µM [activator, full curve, poor fit] | 
29 | Cc1ccccc1NC(=O)c1ccc2[nH]c(C)c(C)c2c1 | inconclusive: 3.16 µM [activator, full curve] | 
30 | Cc1c(Cl)cccc1NC(=O)Cn1c(=O)n(Cc2ccco2)c(=O)c2sc3ccccc3c21 |  | inactive: -7.05%
31 | CC(C)[C@H](C(=O)Nc1ccc(C(=O)NO)cc1)c1ccccc1 | inconclusive: 4.85 µM [activator, partial curve] | 
32 | O=S(=O)(NCC(c1cccs1)S(=O)(=O)c1ccccc1)c1ccc(F)c(C(F)(F)F)c1 (stereo not given) |  | inactive: -16.4%
33 | Cc1ccc(-c2noc(-c3ccccc3NC(=O)C3CC(=O)N(c4ccccc4C)C3)n2)cc1 (stereo not given) | inconclusive: 22.4 µM [activator, partial curve, poor fit] | 
34 | Cc1ccccc1-c1noc(-c2ccc(N3CCOCC3)c([N+](=O)[O-])c2)n1 | inconclusive: 1.41 µM [activator, partial curve, poor fit] | 
35 | CNC1CCC(N(Cc2cccc(-c3ccncc3)c2)C(=O)c2sc3ccccc3c2Cl)CC1 (stereo not given) |  | inactive: -24.6%
36 | CCN(CCCNC(=O)c1cc2c(Cl)nc3ccccc3c2s1)Cc1ccccc1 |  | inactive: -44.2%
37 | COc1ccc([C@@H]2CNC(=O)C2)cc1OC1CCCC1 | inconclusive: 4.32 µM [activator, full curve] | 
38 | CCOc1ccc(NC(=O)c2cnc(Nc3ccccc3OC)c3ccccc23)cc1 | inconclusive: 2.24 µM [activator, full curve, poor fit] | 
39 | CCc1ccc2oc(-c3cc(NC(=O)c4cccnc4)cc(C)c3O)nc2c1 | inconclusive: 1.78 µM [activator, full curve, poor fit] | 
40 | COc1ccc(NC(=O)c2cc(CN3CCCC3)on2)cc1Cl | inconclusive: 14.1 µM [activator, partial curve, poor fit] | 
